From PubChem BioAssay AID686979 (National Center for Advancing Translational Sciences (NCATS), 2013)
Out of some 420,000 compounds screened, about 50,000 (12%) were called active. The inconclusive results got no clear call from the source; some entries with a clear call stand among them for comparison. The call rests on the fitted dose curve; in most records, active means well fitted inhibition curve with a large enough effect; inconclusive means small, poorly fitted or top-dose-only effect; inactive means flat fitted curve, though single readings scatter. No potency is given beside an inconclusive call; the fits are too rough.

Experiment: qHTS for Inhibitors of human tyrosyl-DNA phosphodiesterase 1 (TDP1): qHTS in cells in presence of CPT; further: nearly all actives have a fitted effect of over 55% in size
Details: chicken DT40 Tdp1-/-;hTDP1 cells + 20 nM CPT, ATP luminescence, 48 h; activity change, negative = growth inhibition: at 46.2 µM (top of the series) unless noted
Outline: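 Chicken DT40 Tdp1-/- cells stably complemented with human TDP1 were seeded at 400 cells/well in medium containing 20 nM camptothecin, exposed to pin-transferred compounds, and grown at 37 °C for at least 48 hr. Viability was read as ATP luminescence.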
On the % scale 0 is the no-effect control and ±100 the full control effect; potency means the concentration at half of the fitted maximal effect; tags describe the fitted curve by direction and shape.

Structure (SMILES)	Potency	activity change, negative = growth inhibition
Cc1c(C(=O)N(Cc2ccc(N(C)C)cc2)CC2CCCO2)oc2ccc(Cl)cc12 (stereo not given)	active: 16.4 µM	–
CN(C)c1ccc(-c2nnc(SCC(=O)NCc3ccco3)n2C)cc1	–	inactive: -7.6%
COc1ccc(Cl)cc1NC(=O)c1cn(C2CCCCC2)c(=O)c2c1c1ccccc1n2C	inconclusive [inhibitor, full curve, poor fit]	–
CC1=C(/C=C/C(C)=C/C=C/C(C)=C/C=C/C=C(C)/C=C/C=C(C)/C=C/C2=C(C)C[C@@H](O)CC2(C)C)C(C)(C)C[C@H](O)C1	active: 15 µM	–
CCOC(=O)N1CCC(NC(=O)C2CCN(S(=O)(=O)c3ccc4c(c3)oc(=O)n4C)CC2)CC1	inconclusive [inhibitor, single point]	–
O=C(CCCOC(=O)c1ccc(O)cc1O)c1ccc(Br)cc1	inconclusive [inhibitor, partial curve]	–
Cc1ccc(C)c(S(=O)(=O)c2nnn3c2nc(NC(C)C)c2sccc23)c1	active: 23.1 µM	–
O=C(O)c1ccc2nc(-c3cc4cccc(O)c4oc3=O)[nH]c2c1	inconclusive [inhibitor, single point]	–
COC(=O)C1=C(COc2ccccc2)NC(=O)NC1c1ccc2ccccc2c1 (stereo not given)	inconclusive [inhibitor, single point]	–
N#Cc1cccc(C(=O)Nc2ccccc2C(=O)NC2CC2)c1	–	inactive: -2.85%
COC(=O)c1ccc(C(=O)OC)c(NC(=O)CSCc2ccccc2Br)c1	inconclusive [inhibitor, single point]	–
CCn1c(-c2ccco2)nc2ccccc21	–	inactive: -10.6%
CCS(=O)(=O)N1Cc2ccccc2CC1C(=O)NC(C)C12CC3CC(CC(C3)C1)C2 (stereo not given)	inconclusive [inhibitor, single point]	–
CCCCCCNC(=O)O[C@]12C[C@@H](C(=O)OC)[C@@H](C(=O)OC)C[C@@]1(O)CN(S(=O)(=O)c1ccc(C)cc1)C2	inconclusive [inhibitor, single point]	–
COCCNc1oc(-c2ccccc2Cl)nc1S(=O)(=O)c1ccc(C)cc1	inconclusive [inhibitor, single point]	–
O=C(Nc1ccc(O)cc1)c1ccc2c(c1)C(=O)N(Cc1ccccc1)C2=O	inconclusive [inhibitor, single point]	–
Cc1ccccc1-c1nc(CN(Cc2c(C)nn(C)c2C)C2CC2)c(C)o1	inconclusive [inhibitor, single point]	–
Cc1ccnc(SC2CC(=O)N(c3ccccc3)C2=O)n1 (stereo not given)	–	inactive: -4.69%
CN1CCN(C(=S)c2ccc([N+](=O)[O-])cc2)CC1	–	inactive: 1.59%
CCN(c1ccccc1)c1ccc2cc(S(=O)(=O)N3CCCC3)ccc2n1	active: 25.9 µM	–
COc1ccccc1Cn1cc(C(=O)c2ccc(C)cc2)c(=O)c2cc(C)ccc21	active: 5.17 µM	–
CC(C)C(c1nnnn1C1CCCC1)N(C)C1CCCCC1 (stereo not given)	inconclusive [inhibitor, single point]	–
c1ccc(CCc2nn3c(Cn4cnc5ccccc54)nnc3s2)cc1	active: 18.4 µM	–

Structure (SMILES)	Potency	activity change, negative = growth inhibition
CCN1CCCC1CNS(=O)(=O)c1ccc(F)c(Cl)c1 (stereo not given)	–	inactive: 17.7%
COc1ccccc1C=C1CCc2ccccc2C1=O	inconclusive [inhibitor, partial curve]	–
O=[N+]([O-])c1ccc(N2CCN(CC3CCCCC3)CC2)cc1	inconclusive [inhibitor, single point]	–
COc1ccc(C(C(=O)Nc2ccc3c(c2)OCCO3)n2c(=O)c(-c3cc4ccccc4[nH]3)nc3ccccc32)cc1 (stereo not given)	inconclusive [inhibitor, single point]	–
CN(CC1CCN(CCc2cccc(C(F)(F)F)c2)CC1)C(=O)c1ccc(F)cc1	inconclusive [inhibitor, single point]	–
CCOc1ccc(NC(=O)CSc2ccc(-c3sc(-c4ccccc4)nc3C)nn2)cc1	–	inactive: -88.5%
COc1ccc(/C=N/NC(=O)c2ccc(NC(C)=O)cc2)cc1COc1ccc(F)cc1F	inconclusive [inhibitor, single point]	–
CC(C)Cn1cnc2c(SCCc3ccccc3)nc(N)nc21	inconclusive [inhibitor, single point]	–
COc1ccc(CN2CCC(Cc3ccccc3)CC2)cc1OC	inconclusive [inhibitor, single point]	–
CCOCCCNCc1ccc(OCc2ccccc2C)c(OC)c1	inconclusive [inhibitor, single point]	–
CCOC(=O)/C=C1\Nc2ccccc2OC1=O	active: 8.2 µM	–
CC(=O)N(CCS(=O)(=O)c1ccc(Cl)cc1)Cc1cccs1	–	inactive: -3.64%
COc1ccc(-c2cn3cc([N+](=O)[O-])ccc3n2)cc1OC	inconclusive [inhibitor, single point]	–
Clc1ncccc1-c1nc2ccccc2n1Cc1ccccc1	inconclusive [inhibitor, partial curve, poor fit]	–
O=S(=O)(Nc1ccc(O)c(Sc2nc3ccccc3s2)c1)c1ccc(F)cc1	–	inactive: -20.4%
O=C(Cn1cnc2c(oc3nc4c(cc32)CCCC4)c1=O)Nc1cccc(Cl)c1	active: 23.1 µM	–
CCc1nc2ccc(C(=O)Nc3cccc(OCC(=O)N(C)C)c3)cn2c1N(C)Cc1ccc(OC)cc1	active: 23.1 µM	–
Cc1cccc(Nc2nc3c(S(=O)(=O)c4ccccc4)nnn3c3ccccc23)c1	inconclusive [inhibitor, single point]	–
CN(C)S(=O)(=O)c1ccc(N2CCCC2)c(C(=O)NNC(=O)c2ccc(Br)cc2)c1	–	inactive: 2.9%
CCOC(=O)CNC(=O)Nc1cc(C(=O)NCc2ccccc2OC)ccc1N1CCCC1	–	inactive: -9.82%
CCOc1ccc2nnc(-c3ccc(Br)cc3)n2n1	inconclusive [inhibitor, partial curve]	–
S=C(NCc1ccncc1)Nc1cc(Cl)cc(Cl)c1	inconclusive [inhibitor, single point]	–
